Laboratory results taken from patent US20250381289A1 (Genmab, published 2025).
Blank lines part the entries; values can stand above or below the binder they belong to.

Experiments:
[1] = molecular target: T1, cMET on EGFR and cMET co-expressed tumor cell lines (UniProt P08581); assay: flow cytometry, A431 cells (co-express EGFR and cMET; both arms contribute)
T1 construct: whole, on cells

[2] = molecular target: T2, EGFR on EGFR and cMET co-expressed tumor cell lines (UniProt P00533); assay: as above
T2 construct: whole, on cells

[3] = molecular target: T1, cMET on EGFR and cMET co-expressed …; assay: flow cytometry, EBC-1 cells (co-express EGFR and cMET; both arms contribute)
[4] = molecular target: T2, EGFR on EGFR and cMET co-expressed …; assay: as above
[5] = molecular target: T1, cMET on EGFR and cMET co-expressed …; assay: flow cytometry, CAL-27 cells (co-express EGFR and cMET; both arms contribute)
[6] = molecular target: T2, EGFR on EGFR and cMET co-expressed …; assay: as above
[7] = molecular target: T3, human Sema3A recombinant protein (human, UniProt Q14563 21-771, limits assumed); assay: ELISA, coated human Sema3A, anti-human Fc-HRP
T3 sequence (looked up): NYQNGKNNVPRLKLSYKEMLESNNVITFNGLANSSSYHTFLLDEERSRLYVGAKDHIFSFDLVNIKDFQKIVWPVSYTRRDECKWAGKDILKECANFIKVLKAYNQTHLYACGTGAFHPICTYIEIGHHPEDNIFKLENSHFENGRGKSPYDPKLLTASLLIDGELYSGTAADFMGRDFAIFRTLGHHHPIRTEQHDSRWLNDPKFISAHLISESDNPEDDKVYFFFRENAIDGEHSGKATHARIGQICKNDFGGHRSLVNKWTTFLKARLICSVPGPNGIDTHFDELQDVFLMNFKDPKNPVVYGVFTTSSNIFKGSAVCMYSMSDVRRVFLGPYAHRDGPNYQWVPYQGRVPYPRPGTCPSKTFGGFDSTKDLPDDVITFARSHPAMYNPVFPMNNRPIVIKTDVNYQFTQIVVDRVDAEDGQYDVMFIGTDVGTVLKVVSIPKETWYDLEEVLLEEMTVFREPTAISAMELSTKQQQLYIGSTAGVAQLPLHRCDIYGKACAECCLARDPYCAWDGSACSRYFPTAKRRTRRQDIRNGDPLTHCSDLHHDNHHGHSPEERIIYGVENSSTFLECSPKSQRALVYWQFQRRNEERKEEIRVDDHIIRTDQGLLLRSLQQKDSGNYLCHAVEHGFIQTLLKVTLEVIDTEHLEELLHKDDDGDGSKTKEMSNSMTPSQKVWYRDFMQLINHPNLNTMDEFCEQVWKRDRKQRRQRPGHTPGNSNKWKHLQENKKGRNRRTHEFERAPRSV

[8] = molecular target: T1, cMET on EGFR and cMET co-expressed …; assay: flow cytometry, NCI-H292 cells (co-express EGFR and cMET; both arms contribute)
[9] = molecular target: T2, EGFR on EGFR and cMET co-expressed …; assay: as above
[10] = molecular target: T1, cMET on EGFR and cMET co-expressed …; assay: flow cytometry, KYSE-30 cells (co-express EGFR and cMET; both arms contribute)
[11] = molecular target: T2, EGFR on EGFR and cMET co-expressed …; assay: as above
[12] = molecular target: T1, cMET on EGFR and cMET co-expressed …; assay: flow cytometry, SW620 cells (named among the EGFR and cMET co-expressing lines; both arms contribute)
[13] = molecular target: T2, EGFR on EGFR and cMET co-expressed …; assay: as above
[14] = molecular target: T4, Mouse EGFR extracellular domain (ECD) linked to His tag (mouse, UniProt Q01279 25-647); assay: BLI (Octet RED), antibody on anti-human IgG Fc biosensors, ECD-His in solution
T4 construct: extracellular domain; not shown: His tag

[15] = molecular target: T1, cMET on EGFR and cMET co-expressed …; assay: flow cytometry on NCI-H292 cells (co-express EGFR and cMET), PE anti-human Fc; signal of the whole bispecific, not resolved by arm
[16] = molecular target: T2, EGFR on EGFR and cMET co-expressed …; assay: as above
[17] = molecular target: human HER3 recombinant protein (human, UniProt P21860 fragment); assay: ELISA, plate coated with 100 ng/well human HER3 recombinant protein, HRP anti-human Fc, OD450
[18] = molecular target: T3, human Sema3A recombinant protein; assay: ELISA, plate coated with 100 ng/well human Sema3A recombinant protein, HRP anti-human Fc, OD450

T1 sequence (P08581 25-1390 limits assumed): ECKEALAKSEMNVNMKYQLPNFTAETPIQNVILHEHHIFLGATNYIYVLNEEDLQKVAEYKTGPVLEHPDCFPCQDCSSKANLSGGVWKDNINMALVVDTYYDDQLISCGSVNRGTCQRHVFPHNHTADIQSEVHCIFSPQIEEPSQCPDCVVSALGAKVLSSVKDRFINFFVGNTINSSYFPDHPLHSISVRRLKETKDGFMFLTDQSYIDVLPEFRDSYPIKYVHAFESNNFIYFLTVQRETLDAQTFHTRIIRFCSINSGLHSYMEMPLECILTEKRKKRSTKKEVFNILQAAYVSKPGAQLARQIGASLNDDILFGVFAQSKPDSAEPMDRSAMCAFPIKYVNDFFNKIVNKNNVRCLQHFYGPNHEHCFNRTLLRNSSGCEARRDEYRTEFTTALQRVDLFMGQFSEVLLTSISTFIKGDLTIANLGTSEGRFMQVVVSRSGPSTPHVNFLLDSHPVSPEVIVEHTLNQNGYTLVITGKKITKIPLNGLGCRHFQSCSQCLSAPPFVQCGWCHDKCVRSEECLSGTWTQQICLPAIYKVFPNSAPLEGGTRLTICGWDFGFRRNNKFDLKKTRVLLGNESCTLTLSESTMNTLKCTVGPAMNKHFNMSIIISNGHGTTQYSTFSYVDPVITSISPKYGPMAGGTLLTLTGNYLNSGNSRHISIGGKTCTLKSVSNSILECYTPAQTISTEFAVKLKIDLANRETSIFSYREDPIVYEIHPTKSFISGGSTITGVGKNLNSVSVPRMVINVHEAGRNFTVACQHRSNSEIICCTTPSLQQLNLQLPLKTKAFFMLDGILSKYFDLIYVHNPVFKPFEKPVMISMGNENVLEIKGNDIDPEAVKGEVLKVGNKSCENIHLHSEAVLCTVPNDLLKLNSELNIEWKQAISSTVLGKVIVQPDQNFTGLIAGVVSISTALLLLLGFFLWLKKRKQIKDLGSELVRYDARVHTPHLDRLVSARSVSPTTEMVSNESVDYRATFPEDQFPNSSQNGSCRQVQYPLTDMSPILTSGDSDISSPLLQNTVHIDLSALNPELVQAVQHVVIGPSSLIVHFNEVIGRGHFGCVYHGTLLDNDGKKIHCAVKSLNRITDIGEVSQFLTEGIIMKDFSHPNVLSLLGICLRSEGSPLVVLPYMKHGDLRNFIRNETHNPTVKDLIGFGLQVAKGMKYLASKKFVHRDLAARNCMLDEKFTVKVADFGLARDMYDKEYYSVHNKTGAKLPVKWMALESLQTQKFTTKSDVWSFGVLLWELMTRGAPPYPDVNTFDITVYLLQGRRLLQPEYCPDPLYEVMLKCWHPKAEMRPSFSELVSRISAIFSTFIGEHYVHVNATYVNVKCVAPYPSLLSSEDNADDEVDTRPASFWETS

- EC50 (read off the curve) [1]: ~3 nM
- EC50 (read off the curve) [2]: ~3 nM
- EC50 (read off the curve) [3]: ~3 nM
- EC50 (read off the curve) [4]: ~3 nM
- EC50 (read off the curve) [5]: ~3 nM
- EC50 (read off the curve) [6]: ~3 nM
- binding result [7]: no binding (tested: about 120 nM)
- EC50 (read off the curve) [8]: ~3 nM
- EC50 (read off the curve) [9]: ~3 nM
- EC50 (read off the curve) [10]: ~4 nM
- EC50 (read off the curve) [11]: ~4 nM
- EC50 (read off the curve) [12]: ~0.6 nM
- EC50 (read off the curve) [13]: ~0.6 nM
B1: Bsab 67 (bispecific antibody, human IgG1, kappa, L234A L235A)
chain 1: AIQLTQSPESLSASVGDRVTITCRASQDISSALVWYQQKPGKAPKLLIYDASSLESGVPDRFSGSESGTDFTLTISSLQPEDFATYYCQQFNSYPLTFGGGTKVEIKRTVAAPSVFIFPPSDEQLKSGTASVVCLLNNFYPREAKVQWKVDNALQSGNSQESVTEQDSKDSTYSLSSTLTLSKADYEKHKVYACEVTHQGLSSPVTKSFNRGECGGGGSGGGGSGGGGSGGGGSGGGGSGGGGSGGGGSGGGGSQVQLVESGGGVVQPGRSLRLSCAASGFTFSTYGMHWVRQAPGQGLEWVAVIWDDGSYKYYGDSVKGRFTISRDNSKNTLYLQMNSLRAEDTAVYYCARDGITMVRGVMKDYFDYWGQGTLVTVSSASTKGPSVFPLAPSSKSTSGGTAALGCLVKDYFPEPVTVSWNSGALTSGVHTFPAVLQSSGLYSLSSVVTVPSSSLGTQTYICNVNHKPSNTKVDKKV[omitted - human IgG1 Fc with L234A L235A Y349C T366W (EU numbers)]
chain 2: DIVMTQSPDSLAVSLGERATINCKSSESVDSYANSFLHWYQQKPGQPPKLLIYRASTRESGVPDRFSGSGSGTDFTLTISSLQAEDVAVYYCQQSKEDPLTFGGGTKVEIKRTVAAPSVFIFPPSDEQLKSGTASVVCLLNNFYPREAKVQWKVDNALQSGNSQESVTEQDSKDSTYSLSSTLTLSKADYEKHKVYACEVTHQGLSSPVTKSFNRGECGGGGSGGGGSGGGGSGGGGSGGGGSGGGGSGGGGSGGGGSQVQLVQSGAEVKKPGASVKVSCKASGYIFTAYTMHWVRQAPGQGLEWMGWIKPNNGLANYAQKFQGRVTMTRDTSISTAYMELSRLRSDDTAVYYCARSEITTEFDYWGQGTLVTVSSASTKGPSVFPLAPSSKSTSGGTAALGCLVKDYFPEPVTVSWNSGALTSGVHTFPAVLQSSGLYSLSSVVTVPSSSLGTQTYICNVNHKPSNTKVDKKVEPKSCDKTHTCPPCPAPEAAGGPSVFLFPPKPKDTLMISRTPEVTCVVVDVSHEDPEVKFNWYVDGVEVHNAKTKPREEQYNSTYRVVSVLTVLHQDWLNGKEYKCKVSNKALPAPIEKTISKAKGQPREPQVYTLPPCRDELTKNQVSLSCAVKGFYPSDIAVEWESNGQPENNYKTTPPVLDSDGSFFLVSKLTVDKSRWQQGNVFSCSVMHEALHNHYTQKSLSLSPGK
notes: two chains, one knob and one hole; also called Basb 67

- EC50 (read off the curve) [15]: ~3 nM
- EC50 (read off the curve) [16]: ~3 nM
- binding result [17]: no binding
- binding result [18]: no binding
B2: Bsab 67-LD038 (5) (bispecific antibody, human IgG1, kappa, L234A L235A)
chain 1: B1 chain 1
chain 2: B1 chain 2
modifications: LD038 drug-linker coupled after TCEP reduction; DAR 5.1 by LC-MS; sites not given
notes: also called Basb 67-LD038 (5)
- binding result [14]: no binding (tested: 100 nM (highest concentration tested))
